In all, about 110,000 compounds were measured (“z-score”: median about -0.1, highest 2% from about 2 on). The list shows a part of the results. Calls of active or inactive are those of the source.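 How the source made its calls: active means z-score in the third read window above 3 or below -3; inactive means the rest.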
Target: Metabotropic glutamate receptor 8 (Rattus norvegicus) (UniProt P70579)
Experiment: mGluR8 Gi/Go-coupled signaling modulation – cell-based, rat, thallium flux, HTS, primary screen (AID 488969)
Details: HEK293 rat mGluR8, GIRK (G protein-gated inwardly rectifying potassium channel) thallium flux, FluoZin2; at 10 µM; stronger effect = higher value; submaximal glutamate (EC20) added with thallium

UniProt P70579, sequence (P70579 whole entry, looked up): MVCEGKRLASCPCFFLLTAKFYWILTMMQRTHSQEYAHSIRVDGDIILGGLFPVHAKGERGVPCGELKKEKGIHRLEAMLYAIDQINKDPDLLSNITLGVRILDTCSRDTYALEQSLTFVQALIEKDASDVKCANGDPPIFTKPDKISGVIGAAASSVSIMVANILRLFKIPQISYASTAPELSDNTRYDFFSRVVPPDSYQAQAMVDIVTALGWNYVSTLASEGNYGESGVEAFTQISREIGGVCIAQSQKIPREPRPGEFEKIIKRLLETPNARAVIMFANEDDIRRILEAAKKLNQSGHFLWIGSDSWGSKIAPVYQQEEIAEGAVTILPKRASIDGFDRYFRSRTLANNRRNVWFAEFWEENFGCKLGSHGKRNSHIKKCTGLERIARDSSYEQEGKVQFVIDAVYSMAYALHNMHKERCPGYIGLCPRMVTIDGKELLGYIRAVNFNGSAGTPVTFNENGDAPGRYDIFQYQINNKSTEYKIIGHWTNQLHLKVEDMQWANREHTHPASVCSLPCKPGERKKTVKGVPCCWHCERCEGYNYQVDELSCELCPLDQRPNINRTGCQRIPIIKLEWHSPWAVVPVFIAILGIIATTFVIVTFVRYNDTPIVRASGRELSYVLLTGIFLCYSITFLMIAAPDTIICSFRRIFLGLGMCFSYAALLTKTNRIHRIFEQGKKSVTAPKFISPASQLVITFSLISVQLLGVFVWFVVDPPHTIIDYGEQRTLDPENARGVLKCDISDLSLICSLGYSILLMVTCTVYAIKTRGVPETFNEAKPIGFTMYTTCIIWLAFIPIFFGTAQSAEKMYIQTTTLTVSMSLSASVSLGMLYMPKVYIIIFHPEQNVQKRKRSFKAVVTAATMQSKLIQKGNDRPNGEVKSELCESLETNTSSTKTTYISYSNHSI

Structure (SMILES) | z-score
CC(C)CNC(=O)/C=C/c1cccs1 | -0.176
Cc1ccc(-n2c(C)csc2=N)cc1 | -0.299
CNC(=S)NCc1ccc(OC)cc1 | -0.0941
COc1ccc2c(c1)c1nc3ccccc3nc1n2Cc1ccc(OC(C)C)c(OC)c1 | -0.644
CCn1ncc(/C=N\NC(=O)COc2ccccc2)c1C | 0.185
COC(=O)c1sccc1NC(=S)N1CC(C)CC(C)C1 (stereo not drawn) | 0.0349
CC(=O)c1c(C(C)=O)c(C)n(CCCCn2c(C)c(C(C)=O)c(C(C)=O)c2C)c1C | -0.0757
O=S(NCc1ccco1)C12CC3CC(CC(C3)C1)C2 (stereo not drawn) | -0.122
Cc1nn(-c2nc3ccccc3s2)c(N)c1-c1ccc(Cl)cc1 | 0.0121
CCN(CC)CCn1c2ccccc2c2cnc(N)c(C#N)c21 | -0.434
CCCC(C)c1nnc(NC(=O)CS(=O)(=O)Cc2ccccc2)s1 (stereo not drawn) | 1.15
Cc1ccc(-c2nn(C)c(=O)c3ccccc23)cc1CNC(=O)CN1CCOCC1 | -0.774
COc1ccc(CCNc2ccc(C)cc2)cc1 | -0.282
O=S(Cc1cc(Oc2ccccc2)nc(-c2ccccc2)n1)c1ccccc1 (stereo not drawn) | -0.774
COc1ccc(NC(=O)N2CCCC2)cc1OC | -0.0117
CNC(=O)C(C)NS(=O)(=O)c1ccc(F)cc1 (stereo not drawn) | -0.143
c1ccc(-c2cc3n(c2)CCc2ccccc2-3)cc1 | -0.476
O=P(O)(CCc1ccccn1)CN1CCOCC1 | 0.13
COc1ccccc1CN1C(=O)c2ccncc2C1=O | -0.233
CCOC(=O)c1c(-c2ccccc2)csc1NC(=O)c1ccc(N2C(=O)CCC2=O)cc1 | -0.0931
CN1CC=C2C(C#N)=C(N)C(C#N)(C#N)C(c3ccsc3)C2C1 (stereo not drawn) | -1.4
Cc1csc2ncc(C(=O)N3CCCc4ccccc43)c(=O)n12 | -0.186
COc1cccc(NC(=O)Cn2c(=O)n(-c3ccccc3)c(=O)c3oc4ccccc4c32)c1 | -0.377
COc1ccc(NC(=O)CN2CCN(C3c4ccccc4-c4ccccc43)CC2)cc1 | -0.411
CN(C)CCNC(=O)Cn1nc(-c2ccc(Cl)cc2)ccc1=O | -0.312

Structure (SMILES) | z-score
Cc1ccc2c(CC(=O)OCC(=O)Nc3ccc(Cl)cn3)coc2c1 | -0.196
O=C(CCN1C(=O)c2ccccc2C1=O)N1CCN(C2c3ccccc3-c3ccccc32)CC1 | 0.0521
Cc1cnc(C(=O)OCC(=O)NC23CC4CC(CC(C4)C2)C3)cn1 | -1.14
COc1ccc(/C=N/NC(=O)Nc2cccc3nsnc23)cc1OC | -0.147
CCN1CCN(CC(=O)c2c(C)n(C)c3ccc(OC)cc23)CC1 | -0.0747
CCCOc1ccccc1-n1sc2c(c1=S)-c1cc(OC)cc3c1N(C(=O)C3=O)C2(C)C | 0.501
Cc1cccc(OCCCC(=O)Nc2ccc(S(=O)(=O)N3CCCC3)cc2)c1 | -0.312
CN1C(=O)C2(C(C#N)=C(N)N(c3cc(Cl)cc(Cl)c3)C3=C2C(=O)CC(C)(C)C3)c2ccccc21 (stereo not drawn) | -0.762
Cc1c(CNC(=O)c2cnn3c2NC(c2ccc(Br)cc2)CC3C(F)(F)F)cnn1C (stereo not drawn) | 0.0271
CCOc1ccc(C2=C/C(=C/c3cccnc3)C(=O)O2)cc1 | -0.24
Cc1ccc(-c2nc(CS(=O)CC(=O)NCc3ccccc3)c(C)o2)cc1 (stereo not drawn) | -0.894
CN(C(=O)c1ccc(=O)[nH]c1)C1(C(=O)NC2CCCCC2)CCCCC1 | -0.0324
COCCCNC(=S)NNC(=O)Cn1nc(C)c(Br)c1C | -0.277
CCn1c(=O)cc(SCC(=O)NCC2CCCO2)c2ccccc21 (stereo not drawn) | 0.0159
O=C(NNc1nc2ccccc2s1)Nc1ccccc1 | -0.265
OC(c1ccc(Cl)cc1)C(O)c1nc2ccccc2[nH]1 (stereo not drawn) | -0.311
COc1ccc(C(=O)Cn2nnc(-c3ccccc3NC(=O)C(F)(F)F)n2)cc1 | 0.168
COc1ccc(/C=C(\C#N)C(=O)OCC(=O)Nc2c(C)cccc2C(C)C)cc1 | -0.141
Nc1n[nH]c2c1C1(CCCC1)Cc1ccccc1-2 | -0.655
Cc1cc2c(cc1C)NC(c1cccnc1)C1=C(CC(C)(C)CC1=O)N2 (stereo not drawn) | 0.0448
CC(C)NS(=O)(=O)c1ccc(CCC(=O)Nc2ccc3c(c2)OCCO3)cc1 | 0.0498
C#CC[N+]1(CC#Cc2ccccc2)CCOCC1 | -0.041
Cc1nc2c3ccccc3nc(SCC(=O)c3ccc(Cl)cc3)n2n1 | -0.148
CC(=O)C1=C(O)C(=O)N(CCN2CCOCC2)C1c1ccccc1 (stereo not drawn) | -0.155
CC1(C)CC2CC(C)(CN2C(=S)NC(=O)c2ccccc2Cl)C1 (stereo not drawn) | active: 8.8

Structure (SMILES) | z-score
O=C(NCC(=O)N1CCCC1)c1cccs1 | 0.211
Cc1onc(-c2ccccc2)c1C(=O)n1nnc2ccccc21 | -0.539
O=C(CN1CCOCC1)NCCC12CC3CC(CC(C3)C1)C2 | 1.04
O=C1NC(c2ccccc2)=NC1(NS(=O)(=O)c1ccc(Cl)cc1)C(F)(F)F (stereo not drawn) | -0.195
CC1(C)Cc2noc(N)c2C(C)(C)N1OC(=O)c1scc2c1OCCO2 | -1.21
CN1CCC(N(C)CC(=O)Nc2ccccc2N2CCOCC2)CC1 | -0.342
Cc1ccc(SCCC(=O)Nc2ccccc2C(=O)NC(C)C)cc1 | -0.31
O=C(NC1CCCc2ccccc21)c1ccc(Br)cc1 (stereo not drawn) | 1.55
CCN(CC)CCNC(=O)CCn1c(=S)[nH]c2cc3c(cc2c1=O)OCO3 | -0.266
CCN1CCN(C(c2cccc(OC)c2)c2sc3nc(C)nn3c2O)CC1 (stereo not drawn) | -0.106
Clc1ccc(OCc2nnc(-c3ccccc3Br)o2)c(Cl)c1 | -1.3
Cc1cc(C)c(C)c(S(=O)(=O)NCc2cccnc2)c1C | 0.134
O=C(NC1(C(F)(F)F)N=C2SCCN2C1=O)C1CCCCC1 (stereo not drawn) | 0.214
CC(CCc1ccccc1)NC(=O)COC(=O)C1CCC(C(C)(C)C)CC1 (stereo not drawn) | -0.126
O=S(=O)(NC1CC1)c1ccc(S(=O)(=O)N2CCCC3(CCCCC3)C2)cc1 | 0.413
O=C1OC(Nc2nccs2)c2ccccc21 (stereo not drawn) | -0.00869
CC(C)C1=CC(=NS(=O)(=O)c2cccc([N+](=O)[O-])c2)C=C(C(C)C)C1=O | -0.321
O=C1c2ccccc2C(Nc2ccc(Cl)cc2)N1CCN1CCOCC1 (stereo not drawn) | -0.147
COc1cccc(Oc2coc3c(CN4CCOCC4)c(O)ccc3c2=O)c1 | 0.337
CC(=O)C1=C(O)C(=O)N(CCC(=O)O)C1c1ccccc1Cl (stereo not drawn) | -0.0507
O=C(NC1CCCC1)c1ccc(CN2CCOCC2)cc1 | -0.173
Nc1nnc(COc2ccccc2)s1 | -0.0878
CC(NC(=O)c1ccc(Cn2cc([N+](=O)[O-])cn2)cc1)c1ccccc1 (stereo not drawn) | -0.0865
